Data taken from the supplement of paper PMC3334620.
Over roughly 33,000 sequences, “E-score (-0.5 to 0.5)” has its median near -0.016; the highest 2% begin near 0.32. Some of the results follow.

Target: T1, Stp1 (UniProt B3LFK1)
T1 sequence: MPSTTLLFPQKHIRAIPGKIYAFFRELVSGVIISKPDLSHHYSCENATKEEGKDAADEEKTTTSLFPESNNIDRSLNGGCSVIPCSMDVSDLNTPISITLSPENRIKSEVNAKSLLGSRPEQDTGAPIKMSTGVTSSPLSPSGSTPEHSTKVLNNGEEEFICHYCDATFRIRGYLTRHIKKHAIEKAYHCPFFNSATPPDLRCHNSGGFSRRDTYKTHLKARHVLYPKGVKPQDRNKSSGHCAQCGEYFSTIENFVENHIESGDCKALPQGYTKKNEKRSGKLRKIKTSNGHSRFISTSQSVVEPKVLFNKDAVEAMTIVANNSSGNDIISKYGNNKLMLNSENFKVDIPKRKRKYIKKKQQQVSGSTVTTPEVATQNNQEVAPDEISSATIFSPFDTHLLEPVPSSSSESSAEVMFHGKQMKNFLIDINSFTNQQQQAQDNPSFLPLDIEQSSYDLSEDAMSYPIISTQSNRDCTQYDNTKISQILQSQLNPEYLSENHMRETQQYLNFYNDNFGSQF
Assay: PBM E-score (8-mer binding enrichment) (E-score (-0.5 to 0.5)); higher = stronger / more preferred TF binding; most listed sequences are background and not binding sites
Conditions: protein concentration: 200 nM; construct: GST-full length
Outline: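 Masliner-normalised scans of fluorescent anti-GST signal were the basis for scoring. That signal came from GST-tagged yeast transcription factors applied at about 100-200 nM to double-stranded universal all-10-mer Agilent arrays on fresh or once-stripped slides. Each ungapped eight-base word, pooled with its reverse complement, received an E-score from the Universal PBM Analysis Suite.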

| Sequence | PBM E-score |
| --- | --- |
| AGTCCCAT | -0.174 |
| CCTCTCAA | -0.0851 |
| GGTTCGAA | 0.128 |
| CAGTGAGG | -0.0891 |
| CCACCTTC | -0.304 |
| CCCCGCAA | 0.111 |
| CGGCTTCA | 0.368 |
| CAGTGGAG | -0.0101 |
| CGCTCGGC | 0.256 |
| CCCGACCA | -0.143 |
| AGGCGTAG | -0.0223 |
| ATGTGCGC | -0.0938 |
| CACTTGCG | 0.0239 |
| ACAAGCAG | -0.216 |
| AATAGAAA | 0.215 |
| CACAAAGC | 0.23 |
| ACGGACGT | 0.0122 |
| GATGAGCA | 0.0484 |
| CAATTGCA | 0.134 |
| GTCCGCAC | 0.186 |
| AACAGCGG | -0.0886 |
| CGGGCTAG | -0.197 |
| GGTGGAAC | -0.147 |
| TCTCGAAA | 0.0824 |
| ACGTTACA | 0.00085 |

| Sequence | PBM E-score |
| --- | --- |
| CACTAGAG | 0.145 |
| AGTCGCGG | -0.0754 |
| TGCGGAAA | 0.0333 |
| TAGATGCA | 0.106 |
| GAGCCTCC | -0.21 |
| ACTGTTCC | -0.131 |
| ACATATCC | 0.133 |
| AAGTTAAT | -0.081 |
| ACGAGAAA | 0.0358 |
| AAGTCCCG | -0.145 |
| AAATTGTC | 0.138 |
| AGCTTTGC | -0.187 |
| AATGCTCG | -0.00397 |
| CAAAAACA | 0.065 |
| AACCCCGC | 0.0256 |
| CAATAAAC | 0.13 |
| AATTGTTA | 0.0498 |
| ACCCAACT | -0.178 |
| GATTGAAC | -0.0573 |
| ACGATATC | 0.124 |
| CCCTTCCA | -0.144 |
| TACATGCA | 0.0485 |
| AACGAATC | 0.202 |
| ATTGGTAC | 0.0674 |
| ACTTTGCA | 0.12 |

| Sequence | PBM E-score |
| --- | --- |
| ACCGATCA | 0.039 |
| CCAGCCTA | -0.35 |
| TACTCAAA | 0.132 |
| CCGTGTTC | 0.301 |
| GGTGCTAC | -0.133 |
| AGCGGACC | -0.215 |
| CCGGATTA | -0.0118 |
| GATTAGAC | 0.092 |
| GCACATGC | 0.0145 |
| CCACAGCG | 0.00802 |
| GCCCGCCA | -0.186 |
| GGCGTCAA | 0.31 |
| ATTTTGTG | 0.158 |
| ACCCGCAT | 0.1 |
| CAGCTTAG | -0.256 |
| ATTTGCAC | 0.0601 |
| ATTGCTTA | 0.0358 |
| ACCAGAAT | 0.0838 |
| CTGTCGCA | 0.00593 |
| ATAACGGC | 0.264 |
| CATAAACG | 0.169 |
| ACACATCG | -0.0488 |
| GAGTAAGC | -0.0509 |
| CGTACATC | -0.133 |
| ATGAGGGG | -0.15 |

| Sequence | PBM E-score |
| --- | --- |
| ATACTCAC | -0.0348 |
| TTATATAA | 0.171 |
| AGCGGCGG | 0.337 |
| AGCATATA | -0.0358 |
| GAGCATGC | -0.118 |
| CACAATGG | 0.0592 |
| CATCATTA | 0.0888 |
| ACATGAAG | 0.0523 |
| CGCCCCAG | -0.0372 |
| CCTTGATC | 0.1 |
| AACCGCAC | 0.0401 |
| ACAGCGGA | -0.0656 |
| AAGCGGGA | -0.095 |
| CCAACTGC | 0.00294 |
| CACCGAGA | -0.122 |
| AGATACAA | 0.19 |
| CTCTACAA | -0.00346 |
| GGGTCAGA | -0.117 |
| CTAATCAG | 0.0625 |
| ACGGGGCT | -0.161 |
| CAGCACAA | 0.142 |
| GTTGATTA | 0.205 |
| ACAAGAAC | 0.296 |
| GAGGTAAC | 0.00014 |
| CCGCCATC | -0.0267 |

| Sequence | PBM E-score |
| --- | --- |
| TATCTACA | 0.189 |
| CATCCTCC | -0.21 |
| GTAGCTTA | 0.189 |
| AATGGCTG | -0.0326 |
| AGAACTTG | -0.0576 |
| CGCGGCCA | 0.269 |
| CTTCTATC | -0.0897 |
| CCGGCCTA | -0.0984 |
| AAGCCAGC | -0.137 |
| CCTCGCCC | 0.0345 |
| CCGCATTC | 0.105 |
| ACCACTCA | -0.00545 |
| ATGTGAGA | 0.0389 |
| CGTGGCTC | -0.0716 |
| CAACCCTA | -0.233 |
| ATAGTCGC | -0.0218 |
| ATCATTAC | 0.0917 |
| ATTACTCG | 0.0247 |
| ATACTGTG | -0.0187 |
| AGCGTTAG | -0.0878 |
| CCCTTAGG | -0.262 |
| GTGAAAAA | 0.106 |
| CTCCTCCA | -0.0755 |
| AGAGGAAC | -0.0971 |
| ATGAATAG | 0.0652 |

| Sequence | PBM E-score |
| --- | --- |
| GTTATTTA | 0.227 |
| AGCTTAGC | -0.0407 |
| AAAGCTGA | -0.0561 |
| AGGTTTCC | -0.232 |
| CAATCGAC | -0.138 |
| ACGAGAGT | -0.263 |
| AAGCTAGC | -0.086 |
| ATGCCGTG | 0.484 |
| AGGCTGAC | -0.121 |
| CCATAATC | 0.0285 |
| CAGGCGTC | -0.00022 |
| ACTGACAG | 0.0511 |
| ATGAACAG | -0.0959 |
| CGACCGAA | -0.0124 |
| GAAGTTGA | -0.139 |
| AAGGGTAT | -0.102 |
| GGAATAGA | 0.0693 |
| CAGAGAAG | 0.00015 |
| GCCCGTAA | -0.0663 |
| AGAGTGCG | -0.0608 |
| AGATCTAA | -0.0294 |
| ACTCACAA | -0.0902 |
| AGGTGAAA | 0.0539 |
| CACCGATC | -0.0313 |
| CAATGCCC | 0.136 |

| Sequence | PBM E-score |
| --- | --- |
| CCACTAGC | -0.11 |
| AATTCATG | 0.198 |
| CCACAAGG | 0.057 |
| GCGGATCC | -0.0816 |
| ACCACAAT | -0.0465 |
| CCATAGAG | 0.0124 |
| GAGACCTA | -0.155 |
| GCCGTTCA | 0.441 |
| GCGACGAC | -0.027 |
| AGAGTGGA | -0.0108 |
| GAACGCGC | 0.185 |
| AAAGCAGC | 0.123 |
| CTCATCGA | -0.0651 |
| ACTACCCG | -0.175 |
| CATGATTA | 0.171 |
| AACGCCAC | 0.245 |
| CAAAGACG | 0.0347 |
| CTACTAAC | 0.0989 |
| ATGGGGAC | -0.205 |
| ACCTCTCA | -0.106 |
| GCCGCCGC | 0.424 |
| ATGCCGAC | 0.0658 |
